# Test results as given in PubChem BioAssay AID463173 (ICCB-Longwood Screening Facility, Harvard Medical School, 2010).
# Hit rate of the full screen: of about 52,000 compounds, about 4,300 (8.3%) were called active. Rule as the data show it: active = survival mostly below about 52% (no sharp cut-off); inactive = mostly above about 56%. Some of the results follow.
# Test system: DeltatarO mutant
# Experiment: growth inhibition of S. aureus wild type versus tarO mutant, primary screen, teichoic acid synthesis inhibitors, RN4220, OD600 (AID 463173)
# Settings: OD600, 18 h, hits give low values, screened at 18.75 µg/mL (by protocol)
row,SMILES,survival
1,Nc1ccc2oc(Cc3ccc(Cl)cc3)nc2c1,inactive: 80%
2,CCOc1ccccc1-c1nc(C(N)=O)c2c(n1)n(-c1ccc3c(c1)OCO3)c(=O)n2C,inactive: 79%
3,CC(=O)Nc1ccc(S(=O)(=O)N(Cc2ccccc2)Cc2ccccc2)cc1,active: 54%
4,CCn1c(=O)cc(SCC(=O)NCc2ccc(C)cc2)c2ccccc21,inactive: 84%
5,O=C(NCc1ccco1)c1ccc2c(c1)N(Cc1ccccc1F)C(=O)c1ccccc1S2(=O)=O,inactive: 80%
6,C=Cc1ccc(Cn2c(=O)n(CC3CCC(C(=O)NC(C)C)CC3)c(=O)c3sccc32)cc1 (stereo not drawn),inactive: 76%
7,CCCCNC(=O)c1ccc2c(c1)NC(=O)C(CS(=O)(=O)Cc1ccc(F)cc1Cl)N2 (stereo not drawn),inactive: 74%
8,COc1cccc(NC(=O)CCN2CCN(CCO)CC2)c1,inactive: 158%
9,Cc1ccc2cc3cc(C(=O)N(C)c4ccccc4C)oc3nc2c1,active: 53%
10,CCc1cccc(N2C(=O)N(Cc3c(F)cccc3Cl)c3ccccc3S2(=O)=O)c1,inactive: 92%
11,CCc1cnc2c(c1SCCC(C)C)c(=O)n(C)c(=O)n2C,inactive: 88%
12,CCOC(=O)c1ccc(NC(=O)c2c(NCc3cc(OC)ccc3OC)sc3c2CCC3)cc1,inactive: 80%
13,CC(=O)c1cccc(NC(=O)CSc2nc3c(=O)n(C)c(=O)n(C)c3n2C)c1,inactive: 79%
14,CC(C)CCn1c(=O)c2sccc2n2c(CCCC(=O)NC(C)c3ccccc3)nnc12 (stereo not drawn),inactive: 88%
15,Cc1cccc(-n2cnc3cc(C(=O)NC4CCCCCC4)ccc32)c1,inactive: 106%
16,Cc1cccc(OCC(=O)Nc2ccccc2C(=O)OCc2cc(=O)n3nc(C4CC4)sc3n2)c1,inactive: 86%
17,Cc1cccc(N2CCN(c3nc4ccccc4c4nc(-c5cccnc5)nn34)CC2)c1C,inactive: 81%
18,Cc1ccc(CCNC(=O)c2cc3c(=O)n(C)c4ccccc4c3n2C)cc1,inactive: 63%
19,C=CCn1c(N)cc(=O)nc1SCC(=O)NC1CCCCC1,inactive: 96%
20,CC(=O)c1cc(-c2ccccc2)n(CC(=O)NCc2ccccc2C)c1C,inactive: 65%

row,SMILES,survival
1,COC(=O)c1cc2sc(C)cc2n1CC(=O)Nc1ccc(C)cc1Cl,inactive: 69%
2,CC(C)OCCCNC(=O)c1nn(C)c2c1CSc1ccccc1-2,inactive: 86%
3,CCCOC(=O)c1ccc(Nc2c(C(=O)OCC)cnc3c(C)cc(Cl)cc23)cc1,active: 11%
4,COc1ccc(-c2noc(CSc3nnc(-c4ccccc4)n3C)n2)cc1,inactive: 62%
5,COc1ccc(C)cc1NC(=O)CN1CCN(S(=O)(=O)c2ccc(Br)cc2)CC1,inactive: 81%
6,Cc1ccc(NC(=O)Cn2cc(S(=O)(=O)N3CCCC3)c(S(=O)(=O)N3CCCC3)c2)cc1C,inactive: 70%
7,CCN1CCN(c2cc(C)c3cc(NC(=O)/C=C/c4cccc(Cl)c4)ccc3n2)CC1,active: 44%
8,CCOc1ccc(NC(=O)c2ccc(-c3cccc(Cl)c3C)o2)cc1,active: 42%
9,Cc1ccc(N2CC(c3nnc(NC(=O)c4ccco4)s3)CC2=O)cc1C (stereo not drawn),inactive: 62%
10,COC(=O)Cn1cnc2c1c(=O)[nH]c(=O)n2C,inactive: 105%
11,O=C(NC1CCCC1)c1ccc(CSc2nc3ccncc3n2Cc2ccc(F)cc2)cc1,inactive: 68%
12,COc1ccc(-n2cc(C(=O)NC(C)c3ccccc3)c3ccccc3c2=O)cc1 (stereo not drawn),inactive: 60%
13,COc1ccc(C(=O)NCCSc2c(C)[nH]c3ccccc23)cc1,inactive: 92%
14,CN1CN2C(=O)N3CN(C)CN4C(=O)N(C1)C2C34 (stereo not drawn),inactive: 73%
15,COCCn1ccc2c(OCC(=O)NCc3ccc(F)cc3)cccc2c1=O,inactive: 92%
16,Cc1ccc(NC(=O)Nc2nnc(SCC(=O)N3CCC(C)CC3)s2)cc1,inactive: 70%
17,O=c1c2cc3c(nc2ncn1Cc1ccccc1F)CCCC3,inactive: 100%
18,Cc1cccc(C2C=C(c3ccc(F)cc3)Nc3nc4ccccc4n32)c1 (stereo not drawn),inactive: 84%
19,CCOC(=O)c1cnc2c(ccc3ccccc32)c1Nc1ccc(OC)c(OC)c1,active: 7%
20,CCOc1ccc(Cn2c(CNS(=O)(=O)c3ccc([N+](=O)[O-])cc3)nc3cccnc32)cc1,inactive: 94%

row,SMILES,survival
1,Cc1ccc(NC(=O)/C(C#N)=C/c2cn(CC(=O)NCc3ccco3)c3ccccc23)cc1Cl,inactive: 64%
2,Cc1ccc(OCC(O)CN)cc1 (stereo not drawn),inactive: 88%
3,COc1ccccc1CNC(=O)c1oc2c(c1C)-c1nn(Cc3ccc(Cl)cc3)cc1CC2,inactive: 59%
4,CN(C)c1ccc(CNC(=O)C2CCN(S(=O)(=O)c3cn(C)cn3)CC2)cc1,active: 0%
5,Cc1c(C(=O)Nc2ccncc2)oc2ccccc12,inactive: 98%
6,Cc1ccc(C)c(CN2C(=O)c3ccccc3S(=O)c3ccc(C(=O)NCCc4ccc(Cl)cc4)cc32)c1 (stereo not drawn),inactive: 65%
7,Cc1c(NS(C)(=O)=O)cccc1-c1nc2ccccc2s1,inactive: 49%
8,O=c1c2ccc(N3CCOCC3)c3cccc(c32)c2nc3ccccc3n12,inactive: 90%
9,COc1ccc(NC(=O)c2sc3nc(-c4cc5cccc(OC)c5oc4=O)[nH]c(=O)c3c2C)cc1,inactive: 46%
10,COc1ccccc1-c1cc(C(F)(F)F)nc(S(=O)(=O)CCCC(=O)Nc2ccc(F)c(Cl)c2)n1,inactive: 87%
11,COc1ccc(C(=O)N2CCC(c3c[nH]c4ccccc34)(c3c[nH]c4ccccc34)CC2)cc1,inactive: 84%
12,COc1cc(C2/C(=C(\O)c3ccc(F)cc3)C(=O)C(=O)N2Cc2cccnc2)ccc1O (stereo not drawn),inactive: 88%
13,Cc1ccc(NC(=O)CN2C=NS(=O)(=O)c3ccccc32)c(C)c1,inactive: 99%
14,COc1ccc(NC(=O)CN2C(=O)COc3ccc(S(=O)(=O)N4CCOCC4)cc32)cc1Cl,inactive: 87%
15,COc1ccc(NC(=O)Nc2nnc(N3CCCCCC3)s2)c(OC)c1,inactive: 73%
16,COc1ccc(N2CCN(C(=O)CCS(=O)(=O)c3cc(Br)cc4c3N(C(=O)C3CC3)CC4)CC2)cc1,inactive: 94%
17,NCc1ccoc1C(=O)O,inactive: 98%
18,CC1CCN(CC(=O)Nc2ccc(C(=O)O)cc2)CC1,inactive: 59%
